According to PubChem BioAssay AID588579 (National Center for Advancing Translational Sciences (NCATS), 2011):
Where “and” joins values, the source holds several entries; their conditions need not be identical. Equal entries are not always repeated. In all, about 400,000 compounds went through this assay and about 2,200 (0.55%) were called active. The inconclusive results got no clear call from the source; some entries with a clear call stand among them for comparison. The call rests on the fitted dose curve; in most records, active means well fitted inhibition curve with a large enough effect; inconclusive means small, poorly fitted or top-dose-only effect, or another doubt; inactive means no such curve, though single readings can be large or run the other way. Where the call is inconclusive, the potency comes from a doubtful curve fit. Some compounds were tested as several samples or in several runs, with calls that do not always agree.

Biological target: DNA polymerase kappa (Homo sapiens) (UniProt Q9UBT6)
Assay: qHTS for Inhibitors of Polymerase Kappa
Settings: purified Pol kappa, fluorescent DNA synthesis assay, 10 min; series mostly up to 107 µM
Description: The processing and repair of DNA interstrand crosslinks (ICL) in eukaryotic cells are extremely complex, potentially involving multiple DNA repair and damage tolerance pathways, including homologous recombination, nucleotide excision repair, translesion synthesis (TLS), and cell cycle checkpoints.
To that end, in a collaboration between the Oregon Health & Science University and the NIH Chemical Genomics Center a 1536-well high-throughput screen was developed. This fluorescent screen was assayed against the NIH Molecular Libraries Small Molecule Repository (MLSMR) to discover inhibitors of Pol Kappa.
NIH Chemical Genomics Center [NCGC]
NIH Molecular Libraries Probe Centers Network [MLPCN]
Assay Submitter (PI): Stephen Lloyd, Oregon Health & Science University
Three microliters of reagents (buffer in column 3 and 4 as negative control and 10 nM Pol kappa in columns 1, 2, and 5-48) were dispensed into a 1536-well black solid-bottom plate. Compounds (23 nL) were transferred via Kalypsys pin tool equipped with 1536-pin array. The plates were then incubated for 15 min at room temperature, and 1 uL substrate (50 nM final concentration) were then added to start the reaction and kinetically read twice at 0 min and 10 min on the Viewlux reader
Potency means the concentration at half of the fitted maximal effect; tags describe the fitted curve by direction and shape.

UniProt Q9UBT6, sequence (Q9UBT6 whole entry, looked up): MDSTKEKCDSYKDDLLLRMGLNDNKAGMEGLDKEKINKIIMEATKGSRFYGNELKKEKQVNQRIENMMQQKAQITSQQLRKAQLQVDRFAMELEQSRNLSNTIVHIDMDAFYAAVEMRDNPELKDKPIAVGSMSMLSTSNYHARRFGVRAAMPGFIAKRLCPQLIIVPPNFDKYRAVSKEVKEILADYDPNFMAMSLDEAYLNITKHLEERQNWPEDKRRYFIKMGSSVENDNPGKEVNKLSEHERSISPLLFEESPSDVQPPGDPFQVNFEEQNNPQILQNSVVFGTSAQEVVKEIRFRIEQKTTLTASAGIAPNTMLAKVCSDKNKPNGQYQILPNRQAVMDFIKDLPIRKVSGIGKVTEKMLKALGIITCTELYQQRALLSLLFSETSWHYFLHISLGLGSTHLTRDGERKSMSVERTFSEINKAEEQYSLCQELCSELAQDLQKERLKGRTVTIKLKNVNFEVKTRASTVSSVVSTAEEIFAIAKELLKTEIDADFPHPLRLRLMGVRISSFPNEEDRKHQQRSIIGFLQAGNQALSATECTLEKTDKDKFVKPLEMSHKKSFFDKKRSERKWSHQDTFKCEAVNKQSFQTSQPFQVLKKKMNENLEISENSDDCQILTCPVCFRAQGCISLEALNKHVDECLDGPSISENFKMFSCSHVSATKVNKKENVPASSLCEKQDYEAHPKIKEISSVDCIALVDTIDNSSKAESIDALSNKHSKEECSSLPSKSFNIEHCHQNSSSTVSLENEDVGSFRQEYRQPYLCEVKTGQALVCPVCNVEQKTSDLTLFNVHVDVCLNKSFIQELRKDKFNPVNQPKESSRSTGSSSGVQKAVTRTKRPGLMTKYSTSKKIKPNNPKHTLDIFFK

Potency, active:
CC1=C(C(=O)Nc2ccccc2C)C(c2ccc[nH]2)n2ncnc2N1 (stereo not drawn) 31.6 µM
Nc1ccc(-c2nc3ccc(-c4nc5ccc(N)cc5[nH]4)cc3[nH]2)cc1 5.01 µM and 2.82 µM and 2.67 µM
CCOc1ccccc1Nc1nc(-c2cccc(Cl)c2)c2c(n1)-c1ccccc1OC2 89.1 µM
O=C1c2cc(O)c(O)cc2OC(c2ccc(O)c(O)c2)C1O (stereo not drawn) 8.91 µM
O=C(O)c1ccccc1-c1c2cc(Br)c(=O)c(Br)c-2oc2c(Br)c(O)c(Br)cc12 10 µM
O=C(O)c1cc(-c2ccc(/C=C3\NC(=O)N(c4ccc(Cl)cc4)C3=O)o2)ccc1Cl 10 µM
COc1cc(O)c2c(=O)c(O)c(-c3ccc(O)c(O)c3)oc2c1 3.98 µM and 947 nM
Cc1ccc(C(=O)O)cc1-c1ccc(C=C2C(=O)c3ccccc3C2=O)o1 79.4 µM

Potency, inactive:
O=C(Nc1cccc(C(=O)N2CCOCC2)c1)c1ncn[nH]1
Cc1ccc(NC(=O)c2ccc(=O)[nH]n2)cc1S(=O)(=O)Nc1ccccc1Cl
Cc1noc(C)c1-c1nc(Nc2ccc(F)cc2)c2ccccc2n1
COc1cc(NC(=O)C2CCN(S(=O)(=O)c3c(C)noc3/C=C/c3c(C)cc(C)cc3C)CC2)cc(OC)c1
CC12CCC=CC1C(c1cccc([N+](=O)[O-])c1)N(Cc1ccccc1)C2=O (stereo not drawn)
Nc1ccc2cccnc2c1
COc1ccc(CNC(=O)c2cc(-c3cccs3)nc3ccccc23)c(OC)c1
CC(=O)c1ccc(NC2=NS(=O)(=O)c3ccccc32)cc1
CC(NC(=O)c1ccc(Cl)s1)C1CCCO1 (stereo not drawn)
COc1ccccc1CCNC(=O)c1ccc(NC(=O)N2CC(C)Sc3ccccc32)cc1 (stereo not drawn)
O=S(=O)(NCC(c1ccco1)S(=O)(=O)c1cccs1)c1ccc(F)c(C(F)(F)F)c1 (stereo not drawn)
COc1ccc(-n2c(C)cc(/C=N/Nc3nnc(C)n3N)c2C)cc1
CCc1ccccc1NC(=O)CSC1=C(C#N)C(c2ccc3c(c2)OCO3)C2=C(CCCC2=O)N1 (stereo not drawn)
O=C(c1nnsc1S(=O)(=O)c1ccc(Cl)cc1)N1CCOCC1
COc1ccccc1Cn1ccn(Cc2c(F)cccc2Cl)c(=O)c1=O
COc1ccc(C(=O)Nc2sc3c(c2C(N)=O)CCCC3)cc1OC
Cc1cccc(N2CCN(C3(c4ccccc4)C(=O)c4ccccc4C3=O)CC2)c1C
COc1ccc(CCNC(=O)c2c(C)nn(-c3ccc(F)cc3)c2-n2cccc2)cc1OC
COc1ccc(Br)cc1CNC(=O)CN1C(=O)C(c2ccccc2)Oc2cccnc21 (stereo not drawn)
Cc1c(Cl)cnc(NC(=O)COC(=O)C2CC2)c1Cl

Potency, inconclusive:
Nc1nccnc1C(=O)OCC(=O)Nc1ccc2[nH]c(=O)[nH]c2c1 79.4 µM [inhibitor, partial curve, poor fit]
COc1ccc(C)cc1NC(=O)C1CC(=O)N(CCc2ccc(F)cc2)C1 (stereo not drawn) 89.1 µM [inhibitor, single point]
NC(=O)C[C@H]1NC(=O)[C@H](CCC(=O)O)NC(=O)c2cc([N+](=O)[O-])cc(I)c2NCCC[C@@H](C(N)=O)NC1=O 79.4 µM [inhibitor, single point]
CCN1CCN(CCNC(=O)c2ccc(CS(=O)(=O)c3c(Cl)cccc3Cl)o2)CC1 39.8 µM [inhibitor, single point]
Cc1cc(C)cc(NC(=O)C2CCCN2S(=O)(=O)c2ccc3c(c2)C(C)(C)C(=O)N3C)c1 (stereo not drawn) 89.1 µM [inhibitor, single point]
O=C(O)c1[nH]c2ccccc2c1C(c1cc(Br)ccc1O)c1c(C(=O)O)[nH]c2ccccc12 50.1 µM [inhibitor, partial curve, poor fit]
O=C(O)CCc1ccc(-c2ccc(Br)cc2)o1 89.1 µM [inhibitor, partial curve, poor fit]
c1ccc2c(c1)nc(N1CCOCC1)c1nnnn12 2.82 µM [inhibitor, partial curve, poor fit]
O.O.O.O.O.O.O.O=S(=O)([O-])[O-].[Co+2] 37.7 µM [inhibitor, single point]
COCCCNC(=O)CSc1ccsc1[N+](=O)[O-] 89.1 µM [inhibitor, partial curve, poor fit]
COc1ccc(C=NNc2ccc(S(=O)(=O)Nc3ccccc3C(=O)O)cc2[N+](=O)[O-])c(OC)c1 22.4 µM [inhibitor, full curve]
CC(C)(CNC(=O)CNC(=O)C1CCCCC1)N1CCOCC1 31.6 µM [inhibitor, single point]
NS(=O)(=O)c1ccc(CCNC(=O)c2cc3ccccc3s2)cc1 79.4 µM [inhibitor, single point]
O=C(COC(=O)c1ccc(S(=O)(=O)NCc2ccco2)cc1)NCCC1=CCCCC1 100 µM [inhibitor, single point]
COc1ccccc1OCC(=O)Nc1sc2c(c1C(N)=O)CCC2 89.1 µM [inhibitor, single point]
COc1cc(/C=C2\SC(=O)N(CC(=O)Nc3ccc(C)cc3)C2=O)cc(Cl)c1OCC(=O)O 100 µM [inhibitor, single point]
CN(C)c1ccc(/C=C/C(=O)c2cccc(Br)c2)cc1 79.4 µM [inhibitor, single point]
CCCC[n+]1c(/C=C/c2ccc(N(C)C)cc2)sc2ccccc21 50.1 µM [inhibitor, partial curve, poor fit]
O=c1cc(Nc2ccc3c(c2)OCCO3)[nH]c(=O)n1C1CCCCC1 89.1 µM [inhibitor, single point]
COc1cc(-c2coc3cc(OC)c(OC)c(OC)c3c2=O)cc(OC)c1OC 7.08 µM [inhibitor, single point]
CS(=O)(=O)c1ccccc1C(=O)N1CCN(S(=O)(=O)c2ccc(C3CCCCC3)cc2)CC1 44.7 µM [inhibitor, partial curve, poor fit]
CC(Sc1ccsc1[N+](=O)[O-])C(=O)NCc1ccco1 (stereo not drawn) 56.2 µM [inhibitor, partial curve, poor fit]
COc1ccc(S(=O)(=O)CC(=O)c2cc3cc(Br)ccc3oc2=O)cc1 89.1 µM [inhibitor, single point]
CCN(c1ccccc1)c1nnc(NC(=O)Nc2cccc(Cl)c2C)s1 79.4 µM [inhibitor, partial curve, poor fit]
Cc1ccc(NC(=O)c2cc(-c3ccc(C)o3)nc3ccccc23)cc1 79.4 µM [inhibitor, partial curve, poor fit]
C/C(=C\c1ccco1)C1C(C#N)=C(N)OC2=C1C(=O)CC(C)(C)C2 (stereo not drawn) 50.1 µM [inhibitor, partial curve]
Cc1c2cnn(CC(=O)NCc3ccc(F)cc3)c(=O)c2c(C)n1Cc1ccccc1F 89.1 µM [inhibitor, single point]
N#Cc1ccccc1CN1C(=O)S/C(=C/c2cccn2-c2cccc(C(=O)O)c2)C1=O 89.1 µM [inhibitor, single point]
COc1ccccc1NC(=O)Cn1c(=O)n(Cc2ccco2)c(=O)c2cccnc21 89.1 µM [inhibitor, single point]
CCc1ccc(CNC(=O)c2cc(-c3ccc(Br)s3)nc3ccccc23)cc1 89.1 µM [inhibitor, single point]
CC(=O)OCC1=C(C(=O)OC(C)(C)C)N2C(=O)[C@@H](NC(=O)Cc3ccccc3)[C@H]2SC1 79.4 µM [inhibitor, partial curve]
O=C(Nc1ccc(-c2nc3ncccc3o2)cc1)c1ccco1 89.1 µM [inhibitor, single point]
Cc1nnc(NC(=O)c2ccc(Br)o2)s1 89.1 µM [inhibitor, partial curve, poor fit]
Cc1oc(C)c2c(=O)cc(-c3ccc4c(c3)OCO4)cc(OC(=O)c3ccccc3Cl)c12 89.1 µM [inhibitor, single point]
COc1ccc(-c2csc(NC(=O)CSc3nc4ccccc4c(=O)[nH]3)n2)cc1 89.1 µM [inhibitor, single point]
CC(=O)NO 0.0562 µM [inhibitor, full curve, poor fit]
CC(C)NC(=O)CN1C(=O)C(=O)c2ccccc21 3.16 µM [inhibitor, partial curve, poor fit]
COc1ccc(/C=N\NC(=O)c2sc(N)nc2C)cc1OC 89.1 µM [inhibitor, single point]
CC(C)=C1C(=O)NN(c2ccc(C)c(Cl)c2)C1=O 89.1 µM [inhibitor, single point]
O=C(O)c1ccc(-n2c(-c3cc(-c4ccco4)[nH]n3)n[nH]c2=S)cc1 79.4 µM [inhibitor, partial curve]
